# The list shows a part of the results.
# System: PF3D7_0420300 AP2 domain 1 (GST-tagged)
# Test: gcPBM binding intensity (ln(normalized median fluorescence intensity)); higher = stronger DNA binding
# Procedure, shortened: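 The highest Masliner-normalised natural-log median intensity across replicate spots of either probe orientation is reported as binding intensity. GST-tagged P. falciparum DNA-binding domains expressed in E. coli were applied for 1 h to an Agilent 4 × 180k array of primer-extended double-stranded 36-bp intergenic genomic probes plus negative controls, and bound protein was detected with Alexa488 anti-GST antibody and scanned at 488 nm.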
row,Sequence,gcPBM binding intensity (ln)
1,TTTATATGGATTTTTTTTTAATATTTCTTTTAATTT [TGCATGCA_negctrl_site361],9.15
2,TAAAAAAAAAAAAAAAGTACAAAAAAAATATTTTTT [XGTACX_site7941],9.13
3,ATATGCTATTTACTAGTGCAAAATATTTAAAATATG [GTGCAC_site9517],9.06
4,TTAATATAAGCAAATACACACACACCGATATATATA [CACACA_site9269],10.2
5,GTTGCACAATGTTACACACACAATATAGATCGTTAA [CACACA_site6717],9.76
6,GGCATGACTATCTGCACACATAAAAATAAGAAATAC [CACACA_site841],9.56
7,GATTTATACAAATATGTACACACTAATTATATATTA [CACACA_site8045],9.47
8,ATAAACAGAAAAAAAAAAAAAAAAAAAAAAAAAAAA [CACACA_negctrl_site143],8.62
9,TTTTTTTTCTCACAAAAAATAATTAACAAAAAGGAA [XGTACX_negctrl_site154],8.68
10,CAATGTTAACATATTACACACATATGTATATATAAT [CACACA_site8878],9.62
11,GACAACTCTTTTCATACACACAAAAAAAAAAAAATA [CACACA_site2361],9.4
12,TCACATATATATTAATGTACATATATTTTTTATGTA [XGTACX_site5125],9.25
13,GATATATCCTATGTTATTTTTATGGTGTAATTTAGT [XGTACX_negctrl_site112],9.69
14,TTTTTTTTATGTATCACACATAATTTTTTATTATGA [CACACA_site5534],9.05
15,AGAAAGAAAATATATACACACAAAAAAAAATATATA [CACACA_site1412],9.93
16,CATCCACAAATATGTACACACATATATAAATATGTA [CACACA_site7407],9.48
17,ATAATAACAAGGCGCTGTACTGTACCGTTTTTCATA [XGTACX_site6135],9.37
18,TATCATATTTTTATATGTACATAACATAAAAAAAAA [XGTACX_site2152],8.89
19,AACAGACAAAGACACACACACATACATACATACATA [CACACA_site6351],9.88
20,TGATTTGTGCCGATTTGTACACATTTATATATATAT [XGTACX_site2154],9.54
21,TACATACATACATACACACACATATATATATATATA [CACACA_site1944],9.63
22,ATTTTTTCATATTCTACACACGTGAACAAATGAGTC [CACACA_site5635],9.35

row,Sequence,gcPBM binding intensity (ln)
1,TTCTTTTTAAATTACACACACATATATATCTGTATA [CACACA_site5863],9.89
2,ATGAACATACAATATACACACATATAGATTTATATT [CACACA_site6524],9.73
3,TCATTATTAATATGTAGTACATTATATGATATGTAT [XGTACX_site8978],9.29
4,TAAAGGATTTTCGAAGCATGCCACCTGTGACATACT [TGCATGCA_site130],9.02
5,TTTATACAATTAGACACACACAAAAAGTATATATAT [CACACA_site1082],9.89
6,CATTCAAAGAAAAACTGTACGTGTAGCAAACGTCAT [XGTACX_site2576],9.3
7,ATATAATTACATTGATGTACACGAAATGATTAACAT [XGTACX_site5183],9.26
8,ATGGGTATATTTCCACGTACAAAAAATCCGAATTGC [XGTACX_site1490],9.23
9,CAAATACCCGGACACACACACACAAAAAAAAAAAAA [CACACA_site4441],9.99
10,ATTATTAATAATTGTGTGCACAAATATTTATATGCT,9.34
11,ATATCAATATAAAGTACACACTATAGTATGTATTAT [CACACA_site5286],9.6
12,ATATTGTATTATCTTTATGTACCAAAAAAAAAAAAA [CACACA_negctrl_site1036],8.91
13,ATAAAAATAAAAAACTGTACATACAAGATGTTACAG [XGTACX_site6690],9.19
14,ATGCTTCCTTAGGAATGTACACACATATATAATATG [XGTACX_site873],9.56
15,AAATAATATTTTACATGTACATAATAATTATTGGAT [XGTACX_site2783],9.3
16,TAAATATTTAAATATTGTACTAGGTATAATTGAATA [XGTACX_site3604],9.1
17,TTATTGTACTTGCTCGCATGCAATAAAAATATATTA [TGCATGCA_site580],9.04
18,GTATATATTAAAAAAAAAAAAAAAAAATTAAAATTA [CACACA_negctrl_site572],8.9
19,GGAATATTAATAAGAGTGCATTTTGTATTCAATATG,9.18
20,TAGACTGGACATTAATGTACATAAATATATATGTAT [XGTACX_site7726],9.21
21,TATAAGAAAAATAACACACACATAAACATATATACA [CACACA_site2785],10.2
22,AAAAAAAAAATTCATTGTACATATATATATATATAT [XGTACX_site8346],8.96

row,Sequence,gcPBM binding intensity (ln)
1,ATATATATATATATATGTACTTATTTATATATTTAT [XGTACX_site7811],9.17
2,TGGTTATTTATCTTTATTATAAATATTTACAAATAA [CACACA_negctrl_site1773],9.11
3,ATAAGAAGAAGAAAAACACACATATGTAGATATATA [CACACA_site7469],9.62
4,ATCTATTCACACTTTTAAAAATTAAATATATTATAT [TGCATGCA_negctrl_site610],9.19
5,TAATTTTTTTTTTATAGTACACATATTAAAGAATTA [XGTACX_site2485],8.84
6,ATATATATAAACAAAAGTACATATATAAATTCATTT [XGTACX_site3482],9.25
7,TCTTATATTATATTGTGTATTAAAATTTAACTTCAA [TGCATGCA_negctrl_site565],9.06
8,TTAAAGTTACATTCGACACACACATAACAACTAAAT [CACACA_site9130],9.81
9,ATATATGTATATATGTACATGAATATATAAAGAAAA [CACACA_negctrl_site315],9.33
10,ACAAATAAATAAATATGTACTTAATTATATAATTGA [XGTACX_site5626],9.18
11,GTTTATATTTAATTTTTTTGTTTTTTTGTGTAATTC [XGTACX_negctrl_site194],9.5
12,TATTTATACTAATATGCATGTAATCGAAATACAGCT [TGCATGCA_site457],9.09
13,ATTATCCATCAAAAGGTGCAAATTTTTAATTATAAA [GTGCAC_site9932],8.94
14,AAAGATGATAAAATATGTACACACAGTTTATACATT [XGTACX_site8703],9.39
15,TATATATATATATGTAGTACTTTACAAAATAATTCG [XGTACX_site5322],8.99
16,TAGTTATCACATTGCACACACATTTCCTTTTACATT [CACACA_site7589],10
17,TTTATATTTATGTAGGTGCATTTGTTTACAACATAT [GTGCAC_site9511],9.33
18,TTATTTATACGCTATGAGTTTGATACAAACAATTAA [XGTACX_negctrl_site456],8.99
19,TTTTTACGGAATTAGAGAAAAGAAATAAAAAAAAAA [XGTACX_negctrl_site436],8.76
20,AATAAATTCATGATAGTGCAAAAATTATTTTTGTTA,9.21
21,GCATAACCTTTATATTGTACATATACCTTTATTGTT [XGTACX_site6046],9.7
22,TATTCAAAGAAAAACTGTACGTGTAGCCTACATCCT [XGTACX_site7707],9.12

row,Sequence,gcPBM binding intensity (ln)
1,TTTTTTGTTATTTTCCGTTTTTTTCCATTATAATTT [GTGCAC_negctrl_site461],9.76
2,ACGTTAAAAACAAGTTGTACACAATAAATTATTCTT [XGTACX_site6321],9.24
3,TTATCACATTATTGCACACACATAAAGAAAAAAATA [CACACA_site2841],9.74
4,AATAAAAAGAAACACACACACACACCCATATATATA [CACACA_site3589],10.2
5,AAAGATACTTTCCTCAAACACACAAAACTATACAAC [CACACA_site1475],9.63
6,ATATAAGAACAAAATTGTACATAAATATTTATATAA [XGTACX_site7404],9.24
7,AAAAAAAAGGAAAATAAAAATAAAAAAAAATAATAA [XGTACX_negctrl_site601],9.19
8,TGAGAAAAAAAGAATTGTACATATAAAATATAACAA [XGTACX_site3500],9.22
9,AAAAAAATATATATATATATATATATATTATATATG [GTGCAC_negctrl_site654],8.93
10,TAATTATAGGTATACACACACATACATTTACATAAC [CACACA_site7509],10.1
11,TTTTATTATTTTTGTTGTACAGTATACTGTATGATT [XGTACX_site5359],9.39
12,AACAAACACAGACACACACACACACTAATATGATTA [CACACA_site8770],10.2
13,ATATACTATTATGTGTGTACATAATAATTTATTATA [XGTACX_site3776],9.33
14,TCATACATTTTCCTTGCACACATTTATAATTAATGG [CACACA_site4511],9.59
15,TAAAACAAAAAAAAGATGCACTATTTATTTTATTAT,9.06
16,GACCATGTTAACAAAGCATGCATCTCTATATGTTTA [TGCATGCA_site358],9.31
17,ACATAAAATAAATATACACACATATGTATATATCAT [CACACA_site7424],9.54
18,TTATTTTATAAATCGAAAACAAACAAAAAAAAGATA [XGTACX_negctrl_site178],9.36
19,TTGCTGTATTTATTTTGTACACATTTGGCATTATAT [XGTACX_site3408],9.61
20,AAAAAAAAAAGAAAGAGTACTTTTTCAATACATATA [XGTACX_site2468],8.89
21,AAGAAAAACAATACGTGTACCAAGCATCCTACTAAC [XGTACX_site6628],9.81
22,TTTGTAGCACTTAAGAGTACAAAATGTATAAGATTT [XGTACX_site2321],9.05

# Source: the supplement of paper PMC11417369
